Test results published in patent US20110077237A1, “KINASE INHIBITORS” (VERTEX PHARMACEUTICALS INCORPORATED, priority 2007, published 2011).
Some of these results come from one statement about several compounds together. Some ranges recur; such a range may be that of the whole group of compounds.

Assays:
Format in all cases: biochemical
[1] = target: PKC delta kinase (Homo sapiens, UniProt Q05655); experiment: PKC Delta coupled-enzyme kinase assay; settings: 46 nM PKC delta, 150 μM ATP, 30° C.; read-out: Ki PKC delta
Experimental: (§1) An assay buffer solution was prepared which consisted of 100 mM HEPES (pH 7.5), 10 mM MgCl2, 25 mM NaCl, 0.1 mM EDTA and 0.01% Brij. […] To 16 μL of this enzyme buffer, in a 384 well plate, was added 1 μL of VRT stock solution in DMSO. The mixture was allowed to equilibrate for 10 mins at 30° C. […] Ki values were calculated from initial rate data by non-linear regression using the Prism software package (Prism 4.0a, Graphpad Software, San Diego, Calif.).

[2] = target: PKC theta (Homo sapiens, UniProt Q04759); experiment: PKC Theta I coupled-enzyme (NADH absorbance) kinase assay; settings: 18 nM PKC theta, 240 μM ATP, 30° C., absorbance at 340 nm
Experimental: as §1, with “To 60” for “To 16”, “added 2” for “added 1”

[3] = target: PKC alpha kinase (Homo sapiens, UniProt P17252); experiment: PKC Alpha coupled-enzyme kinase assay; settings: 4.5 nM PKC alpha, 130 μM ATP, 30° C.
Experimental: An assay buffer solution was prepared which consisted of 100 mM HEPES (pH 7.5), 10 mM MgCl2, 25 mM NaCl, 0.1 mM EDTA, 100 μM CaCl2 and 0.01% Brij. […] To 16 μL of this enzyme buffer, in a 384 well plate, was added 1 μL of VRT stock solution in DMSO. The mixture was allowed to equilibrate for 10 mins at 30° C. The enzyme reaction was initiated by the addition of 16 μL stock ATP solution prepared in assay buffer to a final assay concentration of 130 μM. Initial rate data was determined from the rate of change of absorbance at 340 nm (corresponding to stoichiometric consumption of NADH) using a Molecular Devices Spectramax plate reader (Sunnyvale, Calif.) over 15 mins at 30° C. For each Ki determination 12 data points covering the VRT concentration range of 0-20 μM were obtained in duplicate (DMSO stocks were prepared from an initial 10 mM VRT stock with subsequent 1:2 serial dilutions). Ki values were calculated from initial rate data by non-linear regression using the Prism software package (Prism 4.0a, Graphpad Software, San Diego, Calif.).

**Q.** For C=Cc1cnc(N)c(C(=O)c2nc(N3CCNCC3)ccc2Cl)c1 [compound 330], which Ki [1] is on record?
**A.** The Ki was less than 50 nM.

**Q.** What does the source list for Nc1ncc(Br)cc1C(=O)c1nc(N2CCNC(c3ccccc3)C2)ccc1Cl (centres unmarked) [compound 331]?
**A.** Ki [2]: < 50 nM; Ki [3]: 50 to 500 nM

**Q.** With Cc1cccc(C2CN(c3cccc(C(=O)c4cccnc4N)n3)CCN2)c1 (centres unmarked) [compound 335] as the compound, how does the Ki [2] read?
**A.** Its Ki is less than 50 nM.

**Q.** And the Ki [3]?
**A.** Its Ki is 50 to 500 nM.

**Q.** Which Ki [2] does the source give for C=Cc1ccc(N2CCNCC2)nc1C(=O)c1cccnc1N [compound 342] here?
**A.** Its Ki is less than 50 nM.

**Q.** How did the Ki [2] turn out when Nc1ncccc1C(=O)c1nc(N2CCNCC2)cnc1Cl [compound 343] was run?
**A.** The Ki was 50 to 500 nM.

**Q.** For Nc1ncccc1C(=O)c1nccc(N2CCNCC2)n1 [compound 344], which Ki [2] is on record?
**A.** Its Ki is greater than 2800 nM.

**Q.** For CC(C)C[C@H]1CN(c2ccnc(C(=O)c3cccnc3N)n2)CCN1 [compound 345], which Ki [2] is on record?
**A.** The Ki was 50 to 500 nM.

**Q.** Which Ki [1] does the source give for C=Cc1ccc(N2CCN[C@@H](CC(C)C)C2)nc1C(=O)c1cccnc1N [compound 346] here?
**A.** Its Ki is less than 50 nM.

**Q.** And the Ki [3]?
**A.** Its Ki is 50 to 500 nM.

**Q.** Which Ki [2] does the source give for CCc1ccc(N2CCNCC2)nc1C(=O)c1cccnc1N [compound 348] here?
**A.** The Ki was 50 to 500 nM.

**Q.** With CCc1ccc(N2CCNC(c3ccccc3)C2)nc1C(=O)c1cccnc1N (centres unmarked) [compound 350] as the compound, how does the Ki [2] read?
**A.** Its Ki is less than 50 nM.

**Q.** CC(=O)c1ccc(N2CCN[C@@H](CC(C)C)C2)nc1C(=O)c1cccnc1N [compound 351] was tested. Which Ki [2] did it give?
**A.** The Ki was less than 50 nM.

**Q.** How did the Ki [2] turn out when CC(F)(F)c1ccc(N2CCNC(c3ccccc3)C2)nc1C(=O)c1cccnc1N (centres unmarked) [compound 355] was run?
**A.** The Ki was less than 50 nM.

**Q.** How did the Ki [3] turn out when CC(C)C[C@H]1CN(c2ccc(OC(F)F)c(C(=O)c3cccnc3N)n2)CCN1 [compound 356] was run?
**A.** The Ki was 50 to 500 nM.

**Q.** What does the source list for C#Cc1ccc(N2CCN[C@@H](CC(C)C)C2)nc1C(=O)c1cccnc1N [compound 357]?
**A.** Ki [1]: < 50 nM; Ki [3]: 50 to 500 nM

**Q.** Nc1ncccc1C(=O)c1nc(N2CCNC(c3ccccc3)C2)ccc1OC(F)F (centres unmarked) [compound 360] was tested. Which Ki [2] did it give?
**A.** The Ki was less than 50 nM.

**Q.** Which Ki [2] does the source give for NCCSc1ccc(C(F)(F)F)c(C(=O)c2cccnc2N)n1 [compound 367] here?
**A.** The Ki was 50 to 500 nM.

**Q.** For NCCNc1ccc(C(F)(F)F)c(C(=O)c2cccnc2N)n1 [compound 371], which Ki [2] is on record?
**A.** The Ki was 50 to 500 nM.

**Q.** How did the Ki [2] turn out when NCCCNc1ccc(C(F)(F)F)c(C(=O)c2cccnc2N)n1 [compound 372] was run?
**A.** Its Ki is 50 to 500 nM.

**Q.** How did the Ki [2] turn out when Nc1ncccc1C(=O)c1nc(NCC2CCNC2)ccc1C(F)(F)F (centres unmarked) [compound 377] was run?
**A.** Its Ki is 50 to 500 nM.

**Q.** Nc1ncccc1C(=O)c1nc(NCC2CCCN2)ccc1C(F)(F)F (centres unmarked) [compound 379] was tested. Which Ki [2] did it give?
**A.** The Ki was 50 to 500 nM.

**Q.** Which Ki [1] does the source give for Nc1ncccc1C(=O)c1nc(NC[C@@H](N)c2ccccc2)ccc1C(F)(F)F [compound 388] here?
**A.** Its Ki is less than 50 nM.

**Q.** And the Ki [2]?
**A.** The Ki was less than 50 nM.

**Q.** Cc1cccc(C2CN(c3ccc(C(F)(F)F)c(C(=O)c4cccnc4N)n3)CCN2)c1 (centres unmarked) [compound 392] was tested. Which Ki [2] did it give?
**A.** The Ki was less than 50 nM.

**Q.** With CC(C)[C@H](N)CNc1ccc(C(F)(F)F)c(C(=O)c2cccnc2N)n1 [compound 395] as the compound, how does the Ki [2] read?
**A.** The Ki was 50 to 500 nM.

**Q.** Which results are given for CC(C)C[C@H](N)CNc1ccc(C(F)(F)F)c(C(=O)c2cccnc2N)n1 [compound 396]?
**A.** Ki [2]: < 50 nM; Ki [3]: 50 to 500 nM

**Q.** Which results are given for COc1cccc(C2CN(c3ccc(C(F)(F)F)c(C(=O)c4cccnc4N)n3)CCN2)c1 (centres unmarked) [compound 397]?
**A.** Ki [2]: < 50 nM; Ki [3]: 50 to 500 nM

**Q.** CC(C)[C@H](N)COc1ccc(C(F)(F)F)c(C(=O)c2cccnc2N)n1 [compound 400] was tested. Which Ki [2] did it give?
**A.** Its Ki is 50 to 500 nM.

**Q.** How did the Ki [2] turn out when CC(C)C[C@H]1CN(c2ccc(CC(F)F)c(C(=O)c3cccnc3N)n2)CCN1 [compound 401] was run?
**A.** Its Ki is less than 50 nM.

**Q.** With CC#Cc1ccc(N2CCN[C@@H](CC(C)C)C2)nc1C(=O)c1cccnc1N [compound 402] as the compound, how does the Ki [1] read?
**A.** Its Ki is less than 50 nM.

**Q.** What about the Ki [2] of the same compound?
**A.** Its Ki is less than 50 nM.

**Q.** What does the source list for Nc1ncccc1C(=O)c1nc(N2CCNC(c3ccccc3)C2)ccc1C(F)F (centres unmarked) [compound 404]?
**A.** Ki [2]: < 50 nM; Ki [3]: 50 to 500 nM

**Q.** Which results are given for CC(C)C[C@H](N)COc1ccc(C(F)(F)F)c(C(=O)c2cccnc2N)n1 [compound 406]?
**A.** Ki [2]: < 50 nM; Ki [3]: 50 to 500 nM

**Q.** For CC#Cc1ccc(N2CCNCC2)nc1C(=O)c1cccnc1N [compound 412], which Ki [2] is on record?
**A.** Its Ki is less than 50 nM.

**Q.** What about the Ki [3] of the same compound?
**A.** The Ki was 50 to 500 nM.

**Q.** How did the Ki [1] turn out when Nc1ncccc1C(=O)c1nc(OCC(N)c2ccccc2)ccc1C(F)(F)F (centres unmarked) [compound 415] was run?
**A.** The Ki was less than 50 nM.

**Q.** What about the Ki [2] of the same compound?
**A.** Its Ki is less than 50 nM.
